Screen size: about 220,000 compounds; about 2,300 (1%) were called active. This list was built around the results that the source calls inconclusive (neither active nor inactive); the mix of calls is not that of the screen. The call rests on the fitted dose curve; in most records, active means well fitted inhibition curve with a large enough effect; inconclusive means small, poorly fitted or top-dose-only effect, or effect the other way; inactive means no such curve, though single readings can be large or run the other way. Potencies of inconclusive entries are left out as doubtful fits.
The compounds below were run against Neuropeptide S receptor (Homo sapiens) (UniProt Q6W5P4) (assay: qHTS Assay for Antagonists of the Neuropeptide S Receptor: cAMP Signal Transduction). Conditions: CHO-NPSR cells, cAMP TR-FRET, antagonist mode; activity change, negative = inhibition: at 38.3 µM (top of the series) unless noted.
Sequence of UniProt Q6W5P4 (Q6W5P4 whole entry, looked up): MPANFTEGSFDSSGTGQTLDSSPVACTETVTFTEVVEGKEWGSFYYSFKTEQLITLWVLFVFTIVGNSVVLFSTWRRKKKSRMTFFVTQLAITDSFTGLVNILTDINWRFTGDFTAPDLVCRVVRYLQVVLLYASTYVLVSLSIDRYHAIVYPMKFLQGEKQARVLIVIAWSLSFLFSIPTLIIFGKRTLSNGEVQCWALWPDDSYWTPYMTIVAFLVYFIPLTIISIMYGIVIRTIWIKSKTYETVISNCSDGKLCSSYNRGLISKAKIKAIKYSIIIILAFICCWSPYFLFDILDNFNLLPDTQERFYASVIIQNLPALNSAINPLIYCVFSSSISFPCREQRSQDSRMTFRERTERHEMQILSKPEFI
Further: nearly all actives have a fitted effect of over 50% in size.
On the % scale 0 is the no-effect control and ±100 the full control effect; potency means the concentration at half of the fitted maximal effect; tags describe the fitted curve by direction and shape.

Row | Compound | activity change, negative = inhibition | Potency
1 | O=C(Cn1cnc2c(nnn2Cc2ccc(F)cc2)c1=O)NCc1ccccc1 | inactive: -1.04% | –
2 | COCCCNC(=O)CNC(=S)N(Cc1ccccc1)Cc1cccnc1 | inactive: -1.79% | –
3 | Cc1cc2oc(=O)cc(CN3CCCCC3)c2cc1C(C)C | – | inconclusive [inhibitor, single point]
4 | COc1ccc(N=C2SC(C(=O)N3CCN(c4ccc([N+](=O)[O-])cc4)CC3)CC(=O)N2C)cc1 (stereo unspecified) | inactive: -11.4% | –
5 | O=C(NN=C1CCCC1)c1[nH]c2ccc(Br)cc2c1-c1ccccc1 | – | inconclusive [activator, single point]
6 | Cc1ccc(C2(C)CC(C)(C)N(C(=O)CSc3nnc(C)s3)c3ccccc32)cc1 (stereo unspecified) | – | inconclusive [inhibitor, single point]
7 | CCOC(=O)c1[nH]c(C)c(CCC(=O)O)c1C | – | inconclusive [inhibitor, single point]
8 | O=C1CCCc2nc3nc4ccccc4n3cc21 | – | inconclusive [activator, single point]
9 | COCCn1c(SCCCc2ccccc2)nc2c1c(=O)[nH]c(=O)n2C | inactive: 0.631% [at 46.1 µM] | –
10 | CC(NC(=O)COc1ccc(Br)cc1)C(=O)O (stereo unspecified) | inactive: -3.59% [at 46.1 µM] | –
11 | COc1ccccc1-c1nc(C#N)c(N2CCN(c3ccccc3)CC2)o1 | inactive: -16.1% [at 46.1 µM] | –
12 | Cc1ccc(/C=N/Nc2cc(C)nc(NCc3ccccc3)n2)cc1 | – | inconclusive [activator, partial curve]
13 | CCCOc1ccc(/C(O)=C2\C(=O)C(=O)N(CCCOC)C23C(=O)N(C)c2ccccc23)cc1 (stereo unspecified) | – | inconclusive [activator, partial curve]
14 | OC(CNCc1ccccc1F)(c1ccc(F)cc1)c1ccc(F)cc1 | – | inconclusive [inhibitor, single point]
15 | COc1ccc(CN2CCOCCOCCOCC2)cc1 | inactive: -17.4% | –
16 | CC1CCN(c2nc3ccccc3nc2C(C#N)C(=O)OC2CCCCC2)CC1 (stereo unspecified) | – | inconclusive [activator, single point]
17 | CC(C)CCn1c(N)c(S(=O)(=O)c2cccs2)c2nc3ccccc3nc21 | – | inconclusive [inhibitor, partial curve]
18 | Cc1ccc(-n2nc3cc(Cl)c(NC(=O)c4ccco4)cc3n2)cc1 | – | inconclusive [inhibitor, single point]
19 | CCCc1sc(N/N=C/c2ccccn2)nc1-c1ccc(Br)cc1 | – | inconclusive [inhibitor, single point]
20 | Oc1c(Cl)cc(Cl)cc1/C=N/NC(=S)NC1CC2C=CC1C2 (stereo unspecified) | inactive: -15.7% | –
21 | c1ccc2oc(CCc3nc4ccccc4o3)nc2c1 | inactive: -15.5% [at 46.1 µM] | –
22 | Cc1ccc(-c2nnc(Oc3cccc(C)c3)c3ccccc23)cc1 | – | inconclusive [inhibitor, single point]
23 | C[C@]12CCC(O)CC1CCC1C2CC[C@]2(C)C(c3cc(C(F)(F)F)n[nH]3)CCC12 (stereo partly specified) | – | inconclusive [inhibitor, single point]

Row | Compound | activity change, negative = inhibition | Potency
24 | O=C(C(c1ccccc1)c1ccccc1)N1CCN(Cc2ccc(Br)cc2)CC1 | – | inconclusive [inhibitor, single point]
25 | Cc1nn(-c2ccccc2)c(Cl)c1CN(C(=O)CCl)c1cccc2ccccc12 | – | inconclusive [inhibitor, single point]
26 | CCNC(=O)/C(=C/c1ccc2c(c1)OCO2)NC(=O)c1ccc(Br)cc1 | – | inconclusive [inhibitor, single point]
27 | COc1ccc(N2CCc3c(C)nc4c(OC)cccc4c32)cc1 | inactive: -25.5% | –
28 | CCOc1ccc(CNC(=O)C(CC)n2nc(C)n3c(cc4occc43)c2=O)cc1OC (stereo unspecified) | inactive: -13.5% [at 46.1 µM] | –
29 | Cc1cccn2c(N)c(-c3ccccc3)nc12 | – | inconclusive [inhibitor, partial curve, poor fit]
30 | O=C1COc2ccc(-c3csc(=Nc4ccc(OC(F)F)cc4)n3CC3CCCO3)cc2N1 (stereo unspecified) | – | inconclusive [inhibitor, partial curve]
31 | Cc1cccn2c(=O)c(C=O)c(N3CC(C)OC(C)C3)nc12 (stereo unspecified) | inactive: -1.24% | –
32 | COc1cc2c(cc1OC)-c1cc3ccc4c(c3c[n+]1CC2)OCO4 | – | active: 12.6 µM
33 | Cc1ccc2c(nc3s/c(=C/c4cccs4)c(=O)n32)c1C | inactive: -9.34% [at 46.1 µM] | –
34 | CCOC(=O)C1=C(C)NC(SC)=C(C#N)C1CC(C)C (stereo unspecified) | – | inconclusive [inhibitor, single point]
35 | O=S(=O)(c1ccc2c(c1)OCCO2)N1CCC(c2nc3ccc(Cl)cc3[nH]2)CC1 | – | inconclusive [inhibitor, single point]
36 | CCOCCn1c(-c2ccc(OC)cc2)nc2ccccc21 | inactive: -15.3% [at 46.1 µM] | –
37 | Cc1nn2cc(-c3ccccc3)nc2[nH]c1=O | inactive: 4.05% [at 46.1 µM] | –
38 | C/C=C\C(=O)Nc1cccc(C2=NOC3(C2)C[C@@H](C(N)=O)N(C(=O)c2ccc(Cl)cc2)C3)c1 (stereo partly specified) | – | inconclusive [inhibitor, single point]
39 | COc1ccc(S(=O)(=O)Nc2ccc(F)c(F)c2)cc1Cl | inactive: -21% [at 46.1 µM] | –
40 | Cc1ccc2c(c1)c1c(n2CC(O)CNC2CCCC2)CCCC1 (stereo unspecified) | – | inconclusive [inhibitor, single point]
41 | O=P(c1ccccc1)(c1ccccc1)C(c1ccccn1)P(=O)(c1ccccc1)c1ccccc1 | – | inconclusive [inhibitor, single point]
42 | Oc1ccc(NC(=S)N=Nc2c(O)[nH]c3ccc(Br)cc23)cc1 | – | inconclusive [inhibitor, single point]
43 | CCOC(=O)N1CCN(c2c(NCc3ccc(Cl)cc3)c(=O)c2=O)CC1 | – | inconclusive [activator, single point]
44 | CN(C)S(=O)(=O)c1ccc(C(=O)N2CCC(c3nc4ccccc4o3)CC2)cc1 | – | inconclusive [inhibitor, single point]
45 | O=C(Cn1cc(C(=O)COc2ccccc2)c2ccccc21)NCc1ccco1 | – | inconclusive [inhibitor, partial curve]
46 | Cc1ccc(C(=O)N/N=C\c2c(C)nn(-c3ccccc3)c2Cl)cn1 | – | inconclusive [inhibitor, single point]

Source: PubChem BioAssay AID1461 (National Center for Advancing Translational Sciences (NCATS), 2008)
